Repeats are few or missing, and single values can be far off.
What was measured:
CHO-K1 [1] = assay: micronucleus frequency (% of nucleated events); higher = more micronuclei (genotoxic)
CHO-K1 [2] = assay: hypodiploid nuclei frequency (% of nucleated events); higher = more hypodiploid events (aneugenic)
Experimental: (§1)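 Flow-cytometric in vitro micronucleus assay (Litron MicroFlow) in CHO-K1 cells in 96-well plates, 19 concentrations (4.5-200 µM, n=1 per concentration). Without S9, cells were exposed for 24 h and sampled at 48 h. With Aroclor 1254-induced rat liver S9, cells were exposed for 3-4 h and sampled at 27-28 h. Read-outs are %MN and %hypodiploid nuclei relative to nucleated events, and relative survival as the nuclei-to-bead ratio versus the 1% DMSO vehicle control (x100).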

CHO-K1 [3] = assay: relative survival (nuclei to bead ratio vs DMSO control) (% of vehicle control); higher = more surviving cells
Experimental: as §1
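Throughout, for hypodiploid nuclei frequency (% of nucleated events): hypodiploid nuclei gated on a flow cytometer with 488 nm excitation after SYTOX Green staining, cultures at 37 °C, positive controls vinblastine without S9 and cyclophosphamide with S9.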
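Throughout, for micronucleus frequency (% of nucleated events): cells lysed with nuclei stained by SYTOX Green, then micronucleus-gated events counted against nucleated events by flow cytometry with 488 nm excitation.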
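Throughout, for relative survival (nuclei to bead ratio vs DMSO control): Lysed-cell nuclei stained with SYTOX Green and counted against counting beads by flow cytometry at 488 nm excitation, with vinblastine (no S9) and cyclophosphamide (plus S9) as positive controls.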

O=c1[nH]cc(F)c(=O)[nH]1 [5-Fluorouracil]
Conditions	hypodiploid nuclei frequency, CHO-K1 [2] [%]	micronucleus frequency, CHO-K1 [1] [%]	relative survival, CHO-K1 [3]
concentration: 4.48 (µM), S9 metabolic activation: with S9, exposure time: 3-4 hours	0.18	1.02	108
concentration: 4.48 (µM), S9 metabolic activation: without S9, exposure time: 24 hours	0.6	1.52	140
concentration: 5.6 (µM), S9 metabolic activation: with S9, exposure time: 3-4 hours	0.16	1	97.5
concentration: 5.6 (µM), S9 metabolic activation: without S9, exposure time: 24 hours	0.5	1.26	104
concentration: 7 (µM), S9 metabolic activation: with S9, exposure time: 3-4 hours	0.24	0.62	126
concentration: 7 (µM), S9 metabolic activation: without S9, exposure time: 24 hours	0.4	1.28	97.9
concentration: 8.75 (µM), S9 metabolic activation: with S9, exposure time: 3-4 hours	0.26	1.06	95.6
concentration: 8.75 (µM), S9 metabolic activation: without S9, exposure time: 24 hours	0.4	1.32	106
concentration: 10.9 (µM), S9 metabolic activation: with S9, exposure time: 3-4 hours	0.3	1.32	99.8
concentration: 10.9 (µM), S9 metabolic activation: without S9, exposure time: 24 hours	0.38	1.24	124
concentration: 13.7 (µM), S9 metabolic activation: with S9, exposure time: 3-4 hours	0.32	1.38	109
concentration: 13.7 (µM), S9 metabolic activation: without S9, exposure time: 24 hours	0.36	1.62	94
concentration: 17.1 (µM), S9 metabolic activation: with S9, exposure time: 3-4 hours	0.22	1.7	84.3
concentration: 17.1 (µM), S9 metabolic activation: without S9, exposure time: 24 hours	0.54	1.58	115
concentration: 21.4 (µM), S9 metabolic activation: with S9, exposure time: 3-4 hours	0.22	0.88	102
concentration: 21.4 (µM), S9 metabolic activation: without S9, exposure time: 24 hours	0.48	1.64	84.8
concentration: 26.7 (µM), S9 metabolic activation: with S9, exposure time: 3-4 hours	0.3	1.16	83.8
concentration: 26.7 (µM), S9 metabolic activation: without S9, exposure time: 24 hours	0.5	0.96	86.1
concentration: 33.4 (µM), S9 metabolic activation: with S9, exposure time: 3-4 hours	0.4	1.36	96.1
concentration: 33.4 (µM), S9 metabolic activation: without S9, exposure time: 24 hours	0.64	0.76	56.7
concentration: 41.7 (µM), S9 metabolic activation: with S9, exposure time: 3-4 hours	0.26	1.26	92
concentration: 41.7 (µM), S9 metabolic activation: without S9, exposure time: 24 hours	0.52	1.68	80.6
concentration: 52.2 (µM), S9 metabolic activation: with S9, exposure time: 3-4 hours	0.56	1.38	73.4
concentration: 52.2 (µM), S9 metabolic activation: without S9, exposure time: 24 hours	0.44	1.34	95.6
concentration: 65.2 (µM), S9 metabolic activation: with S9, exposure time: 3-4 hours	0.36	1.26	76.3
concentration: 65.2 (µM), S9 metabolic activation: without S9, exposure time: 24 hours	0.52	1.42	81.8
concentration: 81.5 (µM), S9 metabolic activation: with S9, exposure time: 3-4 hours	0.18	1.5	82.2
concentration: 81.5 (µM), S9 metabolic activation: without S9, exposure time: 24 hours	0.64	1.32	81
concentration: 102 (µM), S9 metabolic activation: with S9, exposure time: 3-4 hours	0.26	1.46	86
concentration: 102 (µM), S9 metabolic activation: without S9, exposure time: 24 hours	0.8	1.92	91.1
concentration: 127 (µM), S9 metabolic activation: with S9, exposure time: 3-4 hours	0.3	1.86	82.7
concentration: 127 (µM), S9 metabolic activation: without S9, exposure time: 24 hours	0.88	1.76	68.4
concentration: 159 (µM), S9 metabolic activation: with S9, exposure time: 3-4 hours	0.22	1.76	96.6
concentration: 159 (µM), S9 metabolic activation: without S9, exposure time: 24 hours	0.98	2.3	91.3
concentration: 199 (µM), S9 metabolic activation: with S9, exposure time: 3-4 hours	0.14	1.6	78.3
concentration: 199 (µM), S9 metabolic activation: without S9, exposure time: 24 hours	0.86	2.82	89.6

Nc1nc(=S)c2[nH]cnc2[nH]1 [6-Thioguanine]
Conditions	hypodiploid nuclei frequency, CHO-K1 [2] [%]	micronucleus frequency, CHO-K1 [1] [%]	relative survival, CHO-K1 [3]
concentration: 4.5 (µM), S9 metabolic activation: with S9, exposure time: 3-4 hours	0.18	1.36	64.4
concentration: 4.5 (µM), S9 metabolic activation: without S9, exposure time: 24 hours	0.34	1.88	74.8
concentration: 5.63 (µM), S9 metabolic activation: with S9, exposure time: 3-4 hours	0.26	1.32	79.4
concentration: 5.63 (µM), S9 metabolic activation: without S9, exposure time: 24 hours	0.68	1.52	72.3
concentration: 7.04 (µM), S9 metabolic activation: with S9, exposure time: 3-4 hours	0.12	1.3	76.2
concentration: 7.04 (µM), S9 metabolic activation: without S9, exposure time: 24 hours	0.7	2.08	66.8
concentration: 8.8 (µM), S9 metabolic activation: with S9, exposure time: 3-4 hours	0.24	1.5	66.9
concentration: 8.8 (µM), S9 metabolic activation: without S9, exposure time: 24 hours	0.48	2.18	56.2
concentration: 11 (µM), S9 metabolic activation: with S9, exposure time: 3-4 hours	0.34	1.16	71.3
concentration: 11 (µM), S9 metabolic activation: without S9, exposure time: 24 hours	0.84	2.28	62
concentration: 13.7 (µM), S9 metabolic activation: with S9, exposure time: 3-4 hours	0.26	1.2	62.6
concentration: 13.7 (µM), S9 metabolic activation: without S9, exposure time: 24 hours	1.04	2.9	54
concentration: 17.2 (µM), S9 metabolic activation: with S9, exposure time: 3-4 hours	0.36	1.12	75.2
concentration: 17.2 (µM), S9 metabolic activation: without S9, exposure time: 24 hours	1.54	3.14	56.2
concentration: 21.5 (µM), S9 metabolic activation: with S9, exposure time: 3-4 hours	0.26	1.8	76.9
concentration: 21.5 (µM), S9 metabolic activation: without S9, exposure time: 24 hours	1.58	3.34	45.8
concentration: 26.8 (µM), S9 metabolic activation: with S9, exposure time: 3-4 hours	0.26	1.4	73.5
concentration: 26.8 (µM), S9 metabolic activation: without S9, exposure time: 24 hours	1.48	3.22	57.7
concentration: 33.6 (µM), S9 metabolic activation: with S9, exposure time: 3-4 hours	0.22	1.36	71.3
concentration: 33.6 (µM), S9 metabolic activation: without S9, exposure time: 24 hours	1.56	2.7	62.9
concentration: 41.9 (µM), S9 metabolic activation: with S9, exposure time: 3-4 hours	0.3	1.7	70.8
concentration: 41.9 (µM), S9 metabolic activation: without S9, exposure time: 24 hours	1.08	2.98	44.2
concentration: 52.4 (µM), S9 metabolic activation: with S9, exposure time: 3-4 hours	0.26	2.72	65.6
concentration: 52.4 (µM), S9 metabolic activation: without S9, exposure time: 24 hours	1.44	2.92	47.7
concentration: 65.5 (µM), S9 metabolic activation: with S9, exposure time: 3-4 hours	0.34	3.26	74.8
concentration: 65.5 (µM), S9 metabolic activation: without S9, exposure time: 24 hours	1.1	2.7	44.6
concentration: 81.9 (µM), S9 metabolic activation: with S9, exposure time: 3-4 hours	0.38	3.64	66
concentration: 81.9 (µM), S9 metabolic activation: without S9, exposure time: 24 hours	1.14	3.44	46.4
concentration: 102 (µM), S9 metabolic activation: with S9, exposure time: 3-4 hours	0.32	4.44	62.6
concentration: 102 (µM), S9 metabolic activation: without S9, exposure time: 24 hours	1	3.38	43.1
concentration: 128 (µM), S9 metabolic activation: with S9, exposure time: 3-4 hours	0.62	6.62	54.8
concentration: 128 (µM), S9 metabolic activation: without S9, exposure time: 24 hours	–	–	39.3
concentration: 160 (µM), S9 metabolic activation: with S9, exposure time: 3-4 hours	0.72	6.9	61.7
concentration: 160 (µM), S9 metabolic activation: without S9, exposure time: 24 hours	–	–	37.5
concentration: 200 (µM), S9 metabolic activation: with S9, exposure time: 3-4 hours	0.76	7.46	54.2
concentration: 200 (µM), S9 metabolic activation: without S9, exposure time: 24 hours	–	–	36.6

From the supplement of paper PMC9151546
